Data reported in PMC4336329 (PLoS ONE, 2015).
The campaign covered roughly 310,000 compounds. About 2,200 (0.71%) showed an effect of 50% or more. Effects have a minus sign here. The list shows a part of the results.

Each compound was assayed against human ether-à-go-go-related gene (hERG) potassium channel (human, UniProt Q12809) (assay: primary screen, population patch clamp on CHO cells stably expressing hERG).
human ether-à-go-go-related gene (hERG) potassium channel, sequence (Q12809 whole entry, looked up): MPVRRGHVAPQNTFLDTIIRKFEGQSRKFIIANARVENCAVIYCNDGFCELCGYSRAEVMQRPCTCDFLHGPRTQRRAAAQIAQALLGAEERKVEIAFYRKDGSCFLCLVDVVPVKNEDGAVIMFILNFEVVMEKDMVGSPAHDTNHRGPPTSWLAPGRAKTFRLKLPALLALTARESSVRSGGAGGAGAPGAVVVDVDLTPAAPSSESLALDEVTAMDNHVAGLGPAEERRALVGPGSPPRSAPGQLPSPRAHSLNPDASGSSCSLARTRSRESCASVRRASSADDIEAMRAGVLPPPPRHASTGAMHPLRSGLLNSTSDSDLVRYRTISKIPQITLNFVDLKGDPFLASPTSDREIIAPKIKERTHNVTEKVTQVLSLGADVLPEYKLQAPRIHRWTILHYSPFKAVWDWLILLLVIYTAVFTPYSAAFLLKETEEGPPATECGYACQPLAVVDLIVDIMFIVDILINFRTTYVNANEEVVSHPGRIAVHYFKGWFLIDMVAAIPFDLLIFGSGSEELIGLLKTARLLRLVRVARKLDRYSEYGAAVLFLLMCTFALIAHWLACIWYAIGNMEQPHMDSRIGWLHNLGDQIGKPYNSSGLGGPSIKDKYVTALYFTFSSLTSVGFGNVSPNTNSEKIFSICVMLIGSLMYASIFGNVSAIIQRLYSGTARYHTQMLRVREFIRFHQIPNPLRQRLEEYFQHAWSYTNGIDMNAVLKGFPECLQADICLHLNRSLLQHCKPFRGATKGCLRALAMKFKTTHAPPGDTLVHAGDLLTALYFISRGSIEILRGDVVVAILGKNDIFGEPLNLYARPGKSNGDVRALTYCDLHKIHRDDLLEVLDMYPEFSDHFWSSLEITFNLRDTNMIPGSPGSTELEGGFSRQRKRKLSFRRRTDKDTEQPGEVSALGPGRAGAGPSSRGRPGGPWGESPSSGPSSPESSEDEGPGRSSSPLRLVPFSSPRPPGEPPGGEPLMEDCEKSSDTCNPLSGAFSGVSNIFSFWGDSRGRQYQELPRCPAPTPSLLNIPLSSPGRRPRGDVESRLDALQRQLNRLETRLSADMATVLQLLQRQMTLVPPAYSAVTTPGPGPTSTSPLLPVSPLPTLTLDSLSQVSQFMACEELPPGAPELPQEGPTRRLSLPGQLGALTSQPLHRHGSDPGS

Row | Compound | hERG current change (%, negative = inhibition) at 1uM
1 | Cc1ccc(-c2ccc(=O)n(CCC(=O)N3CCN(c4ccccc4)CC3)n2)cc1 | -19.9%
2 | CCN1CCN(C(=O)CSc2nc(N)cc(N)n2)CC1 | 20.2%
3 | Cc1c(Cl)cccc1N/C(SCC(=O)N1CCCCCC1)=C(/C#N)c1nc2ccccc2s1 | 1.3%
4 | COc1ccc(-c2cn3nc(C)c(C)nc3n2)cc1OC | 15.3%
5 | Cc1cc(Br)ccc1NC(=O)CN(C)C(=O)c1ccc(-n2cncn2)c([N+](=O)[O-])c1 | -19.5%
6 | CCCN1CC(=O)N2C(c3ccccc3)c3[nH]c4ccccc4c3C[C@H]2C1=O (stereo partly shown) | 1.54%
7 | CC(C)(C)c1ccc(-c2nc3c(C#N)c(-c4ccc5c(c4)OCO5)ccn3n2)cc1 | -2.37%
8 | CCOc1ccc(C2Nc3cccc4cccc(c34)N2)cc1OC | 11.3%
9 | COc1ccc(N/C=C/c2nc(SC)nnc2C)cc1 | 12.6%
10 | Cc1ccc(N2CCN(C(=O)c3ccccc3NC(=O)C3CC=CCC3C(=O)O)CC2)cc1 (stereo not shown) | 4.08%
11 | Br.c1ccc(-c2cc3n(c2)CCc2ccccc2-3)cc1 | 9.7%
12 | C/C(=N\OC(=O)NC(C)C)c1sc(-c2ccccc2)nc1C | 12%
13 | O=[N+]([O-])c1ccc(Cl)c(S(=O)(=O)Nc2ccc(S(=O)(=O)N3CCOCC3)cc2)c1 | 17.8%
14 | Nc1c(C(=O)c2ccc(Cl)cc2)sc2c1c(=O)[nH]c(=O)n2-c1ccccc1 | 7%
15 | O=S(=O)(Nc1cc(S(=O)(=O)N2CCOCC2)ccc1NCC1CCCO1)c1ccccc1F (stereo not shown) | -1.92%
16 | Cc1cccc(CCNC(=O)C2CCN(S(=O)(=O)c3c(C)noc3C)CC2)c1 | 13.3%
17 | N#C/C(=C\c1ccco1)C(=O)Nc1ccc(S(N)(=O)=O)cc1 | 11.4%
18 | Cc1ccc(CN2C(=O)c3ccccc3Sc3ccc(C(=O)NCCCN4CCOCC4)cc32)cc1 | 19.9%
19 | C[C@]12CCC(=O)C[C@@H]1CC[C@@H]1[C@@H]2CC[C@]2(C)C=CC[C@@H]12 | 10.6%
20 | Cc1nc2c(C)cccn2c(=O)c1NC(=O)COc1ccccc1 | 9.78%
21 | COc1cc(Cl)c(CN2CCC(CCC(=O)NC3CC3)CC2)cc1OC | -15.9%
22 | COC(=O)c1c(-c2ccccc2OC)sc2ccc(OC)cc12 | 14.1%

Row | Compound | hERG current change (%, negative = inhibition) at 1uM
23 | COc1cc(/C=C2/SC(=S)N(CC(=O)Nc3nc4ccccc4s3)C2=O)cc(OC)c1OC | -3.69%
24 | O=C(C[n+]1ccc(/C=N/O)cc1)N(Cc1ccccc1)Cc1ccccc1.[Cl-] | 3.8%
25 | CN1CC(=O)NC1=NC(=O)C12CC3CC(CC(C3)C1)C2 | 2.45%
26 | CC1CCN(C(C(=O)Nc2ccc(C(C)C)cc2)c2ccc3c(c2)OCO3)CC1 (stereo not shown) | 1.73%
27 | O=C(NCCc1ccccc1F)c1cccc2cccnc12 | 16.3%
28 | Cc1ccn2nc(C(=O)OCC(=O)N(CC(C)C)C3CCS(=O)(=O)C3)nc2n1 (stereo not shown) | 11.2%
29 | O=C(Cc1cccc2ccccc12)NC(=S)Nc1cccc(C(=O)O)c1 | 13.1%
30 | Cc1cc(=O)[nH]c(SCC(=O)NC2CCCCC2)n1 | 11.1%
31 | CCCCCC(=O)NC(NC(=S)NC1CCS(=O)(=O)C1)C(Cl)(Cl)Cl (stereo not shown) | 0.663%
32 | Cc1nnc(NC(=O)NCN2C(=O)C3C4C=CC(C4)C3C2=O)s1 (stereo not shown) | 2.68%
33 | COc1ccccc1C(=O)NCCCNC(=O)c1cccnc1 | 13.5%
34 | CCc1ccc(NC(=O)C2CCCN(S(C)(=O)=O)C2)cc1 (stereo not shown) | 24.3%
35 | Cc1ccc(S(=O)(=O)N2CCC(C)CC2)cc1C(=O)NCc1ccccn1 | 5.18%
36 | O=C(Nc1cccc(Cl)c1)Nc1nnc(CSCCOc2ccc(Cl)cc2)s1 | 6.88%
37 | COCCNCC(=O)NC12CC3CC(CC(C3)C1)C2 | 12.9%
38 | COc1ccc(-n2nc(C(=O)NCC(=O)Nc3cccc(C)n3)c3ccccc3c2=O)cc1 | 12.1%
39 | Nc1c(C(=O)NCCC2=CCCCC2)sc2ccc(S(=O)(=O)N3CCCCC3)cc12 | -23.5%
40 | COc1ccc2c(C)cc(Sc3nnnn3-c3ccccc3)nc2c1 | -0.967%
41 | COc1ccc(CNC(=S)Nc2cc(OC)ccc2OC)cc1 | -2.94%
42 | O=C(COC(=O)CC(c1ccccc1)c1ccccc1)NCc1ccccc1 | 17.8%
43 | CCC(c1nnnn1Cc1ccco1)N(Cc1cc2cc(C)cc(C)c2[nH]c1=O)CC1CCCO1 (stereo not shown) | -1.71%
